Several values for one entry are separate records, joined by “and”; a condition that tells them apart may be missing. Identical values can stand only once. In all, about 13,000 compounds were measured (“IFI”: median about 4, highest 2% from about 17 on). The list shows a part of the results.
Experiment: GSK_TCMDC: Inhibition Frequency Index (IFI). The number of non-kinase HTS assays where a compound showed > 50 % inhibition, expressed as a percentage of the number of such assays in which the compound was tested (-0 is zero)
Type: functional

SMILES | IFI
Cc1cccc2nc(-c3cccc(-c4ccc(CNCc5ccccc5)cc4)c3)[nH]c12 | 12.5%
O=C(Nc1ccc(OC2CCN(Cc3ccccc3)C2)c(Cl)c1)c1ccc(F)cc1 (centres undefined) | -0%
CC1CCN(C(=O)C(Cc2c[nH]c3ccccc23)NS(=O)(=O)c2ccc(Cl)cc2)CC1 (centres undefined) | 0.86%
CC(C)C1c2ccc(O)cc2CC2C(=O)N(C3CCCCC3)C(=O)N21 (centres undefined) | 0.79%
CCCCCC(C)C(C)c1cc(O)c2c(c1)OC(C)(C)CC2c1cc[n+]([O-])cc1 (centres undefined) | 6.57%
COc1ccc(Cn2ncc3c4c(N)nc(N)nc4ccc32)cc1OC | 5.52%
CN1CCN(c2cc(-c3cccc(C(F)(F)F)c3)nc(-c3ccncc3)n2)CC1 | 4.17%
COc1ccc(-c2cc(C(=O)N[C@@H](CC3CCCCC3)C(=O)NCCN3CCCCC3)ccc2O)cc1 | 1.48%
Clc1ccc2nnc(-c3c(Cl)cccc3Cl)n2n1 | 6.67%
C=CCn1c(Sc2ccc(C#N)c([N+](=O)[O-])c2)nnc1-c1cccc(Cl)c1 | -0%
COc1ccc(CN2CCC(NCc3cccc(C(F)(F)F)c3)CC2)cc1 | 2.67%
COc1ccc(NC(=O)Nc2nc(-c3ccc(Cl)c(C)c3)cs2)cc1N1CCN(C)CC1 | 6.34%
c1ccc(Oc2ccc(Nc3ccnc(Nc4ccc5cn[nH]c5c4)n3)cc2)cc1 | 2.92%
O=C(/C=C/c1ccccc1O)N1CCC(CCN2CCC(c3c[nH]c4ccccc34)CC2)CC1 | 2.9%
Cn1c(Nc2cc(C(C)(C)C)on2)nc2cc(Nc3ccnc(Nc4cccc(S(=O)(=O)N5CCOCC5)c4)n3)ccc21 | 5.3%
COc1cc(NC(=O)c2ccc(-c3ccc(C(C)=O)cc3)s2)ccc1OCCN1CCCC1 | 5.94%
Cc1ccc(NC(=O)Nc2ccc(Cl)c(C(F)(F)F)c2)cc1-c1ccc(C(=O)Nc2ccncc2)cc1 | 18.3%
COCCN(CCOC)c1ncc(-c2ccsc2)c(-c2nc(C)c(C)s2)n1 | 2.3%
NC(=O)c1cccc(Nc2nccc(Nc3ccc4[nH]c(-c5ccccc5)cc4c3)n2)c1 | 7.52%
CC(C)Cn1cc(C2CCN(CCN3CCC(CNC(=O)c4ccc(-c5ccc(C(F)(F)F)cc5)cc4)CC3)CC2)c2ccccc21 | 9.17%
NC1CCN(Cc2ccc(-c3cccc(-c4nc5ccccc5[nH]4)c3)cc2)C1 (centres undefined) | 2.82%
CCOc1c(CNCCCCCCNCc2ccc3ccccc3c2OCC)ccc2ccccc12 | 22%

SMILES | IFI
Clc1ccc(Nc2nc3nonc3nc2Nc2ccc(Cl)c(Cl)c2)cc1 | 19.4%
O=C1Nc2cccc3c2C1(CCCCN1CCC(c2cc4ccncc4[nH]2)CC1)CCC3 (centres undefined) | 1.45% and 2.82%
CCCCNC(=O)[C@@H](NC(=O)c1ccc(O)c(-c2ccc(Cl)c(Cl)c2)c1)C(C)C | 2.96%
Cc1ccc(NC(=O)c2ccc(NCCCN3CC(C)CC(C)C3)c([N+](=O)[O-])c2)cc1F (centres undefined) | 2.21%
c1ccc(CCNc2ncnc3c2[nH]c2ccccc23)cc1 | 23.9%
O=C(NCCCNc1ccnc2cc(Cl)ccc12)c1ccccc1F | 1.45%
COc1ccc(N2CCN(CCCCNC(=O)c3ccc(NC(=O)c4cc(C(F)(F)F)cc(C(F)(F)F)c4)cc3)CC2)cc1OC | 3.51%
CCN(C(=O)NC)C1c2cc(C#N)ccc2OC(C)(C)C1O (centres undefined) | 0.71%
Cc1ccccc1N1CCN(c2ncc(C(=O)NC3CC3)cc2Cl)CC1 | 6.25%
CN(C)c1ccc(NC(=O)Nc2ccnc3ccc(Br)cc23)cc1 | 4.44%
CCCNCc1c(O)ccc2c(CNCCC)c(O)ccc12 | 2.94%
COc1ccc(C(=O)Nc2ccc3nc(N4CCCCC4)cc(C)c3c2)cc1OC | 5.66%
COc1ccc2ncc(C#N)c(CCN3CCC(NCc4ccc5c(c4)OCCO5)CC3)c2c1 | 2.88%
Cc1cccc2nc(-c3ccc(-c4cccc(CN5CCCC5CN)c4)cc3)[nH]c12 (centres undefined) | 5%
CCC(C)c1ccc(Nc2nc(C)cc(N(CC)CCCN3CCCCC3)n2)cc1 (centres undefined) | 19.5%
O=C(/C=C/c1ccc(Cl)c(Cl)c1)NCCCCCN1CCCN(C(=S)Nc2cccc(Cl)c2)CC1 | 4.72%
Oc1ccc(CC2CCCN(c3nc(NCCCOc4ccccc4-c4ccccc4)nc(N4CCNCC4)n3)C2)cc1 (centres undefined) | 16.4%
O=C(N[C@@H](Cc1ccccc1)[C@H](O)CNCCC(F)(F)F)c1cccc(OCC2CC2)c1 | 6.1%
CC(C)CNCc1cccc(-c2cccc(CN(CCCN3CCN(C)CC3)C(=O)NC3CCCCC3)c2)c1 | 3.88%
COc1cc(C(=O)NCCCN2CCN(c3cccc(Cl)c3)CC2)ccc1-c1cc2cc(Cl)c(Cl)cc2[nH]1 | 2.96%
CCNc1cc(C(=O)N[C@@H](Cc2ccccc2)[C@H](O)CNC2CC3CCC2C3)cc(N2CCCCS2(=O)=O)c1 (some centres undefined) | -0%
COc1ccc(-c2ccc(NC(=O)c3ccc(C#N)cc3)cc2)cc1CN1CCN(C)CC1 | 2.67%

— ChEMBL document CHEMBL1157539, “Thousands of chemical starting points for antimalarial lead identification” (Nature, 2010)
